# In PubChem BioAssay AID588855 (National Center for Advancing Translational Sciences (NCATS), 2011):
# About 5,000 (1.2%) of roughly 410,000 compounds were called active. This list was built around the results that the source calls inconclusive (neither active nor inactive); the mix of calls is not that of the screen. Calls follow the shape of the dose curve; as a rule, active = well fitted inhibition curve with a large enough effect; inconclusive = small, poorly fitted or top-dose-only effect; inactive = no such curve, though single readings can be large or run the other way. Where the call is inconclusive, the potency comes from a doubtful curve fit.
# Assay: qHTS for Inhibitors of TGF-b; also: nearly all actives have a fitted effect of over 65% in size
# Details: HepG2 CAGA-GFP TGF-b/SMAD3 reporter, GFP fluorescence, 18 h, TGF-beta stimulated, 500 pg/mL final; series mostly up to 46.1 µM
# How it was run: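 First, reporter cells (HEPG2 CAGA-GFP) rested 2 h at 37 degrees C. Next, compounds were pinned in and TGF-beta added to 500 pg/mL final. After 18 h, GFP was imaged per cell and summed per well.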
# Potency is read from the fitted curve at half-maximal effect; tags tell the direction and shape of the fitted curve.
row,Compound,Potency
1,CC1Cc2ccccc2N1C(=O)/C=C/c1cccc(F)c1 (centres undefined),inactive
2,c1ccc(-c2sc3ccccc3c2-c2ccc(OCCN3CCCC3)cc2)cc1,"inconclusive: 25.1 µM [inhibitor, single point]"
3,O=C1NC(Cc2ccc(O)cc2)c2nc3cc(Cl)ccc3c(=O)n2-c2cc(Cl)ccc21 (centres undefined),"inconclusive: 22.4 µM [inhibitor, single point]"
4,CC1CCCN(C(C(=O)NC2CCCCC2)c2cc3c(cc2[N+](=O)[O-])OCO3)C1 (centres undefined),inactive
5,CC1(C)CC(=O)C/C(=N\NC(=S)NCc2ccccc2)C1,"inconclusive: 35.5 µM [inhibitor, single point]"
6,Cc1cc2c(c(C)c1Cl)C(c1ccc3c(c1)OCO3)CC(c1ccccc1)O2 (centres undefined),"inconclusive: 35.5 µM [inhibitor, partial curve, poor fit]"
7,Cc1oc(=O)c(NC(=O)c2cccc(Cl)c2)cc1C(=O)c1ccccc1,"inconclusive: 35.5 µM [inhibitor, single point]"
8,COc1ccc(C(CNC(=O)C(C)(C)Oc2ccc(Cl)cc2)N2CCCCC2)cc1 (centres undefined),"inconclusive: 5.62 µM [inhibitor, single point]"
9,Cc1cc(N2CCOCC2)nc(NCc2ccccc2)n1,active: 10 µM
10,COc1ccc(C(=O)N2CCN(CCNC(=O)C(=O)Nc3ccc(F)cc3)CC2)cc1OC,inactive
11,CC1CC=CC2C1C(=O)N(Cc1ccccc1)C2c1ccc(/C=C/c2ccccc2)cc1F (centres undefined),inactive
12,COc1ccc(C(C)=O)cc1Cn1c(C)c(C(=O)NCc2cccc(C)c2)sc1=O,"inconclusive: 20 µM [inhibitor, single point]"
13,O=C1/C(=C\c2ccncc2)CCc2ccccc21,"inconclusive: 35.5 µM [inhibitor, single point]"
14,CC1Cc2nc(SCC(=O)Nc3nccs3)n(Cc3ccccc3)c(=O)c2S1 (centres undefined),"inconclusive: 12.6 µM [inhibitor, single point]"
15,COc1cccc(CN2CC(C(=O)N3CCN(c4ccc(Cl)cc4)CC3)CCC2=O)c1 (centres undefined),inactive
16,Oc1ccc(Br)cc1C1C=C(c2ccc3c(c2)OCO3)NC(c2ccc(Cl)cc2)N1 (centres undefined),"inconclusive: 15.8 µM [inhibitor, single point]"
17,O=C(Nc1cccc(NC(=O)c2cccc([N+](=O)[O-])c2)n1)c1cccc([N+](=O)[O-])c1,inactive
18,CC1(C)Oc2cc3oc(-c4cc(O)cc(O)c4)cc3cc2CC1O (centres undefined),inactive
19,O=C(CNc1ccc(F)cc1)N/N=C/c1c(O)ccc2ccccc12,"inconclusive: 11.2 µM [inhibitor, single point]"
20,COc1cccc(/C=N/NC(=O)C(C)n2nnc3ccccc32)c1 (centres undefined),"inconclusive: 22.4 µM [inhibitor, single point]"
21,O=C1c2ccccc2C(=O)N1CCc1ccccc1,inactive
22,C=C1C=C(C(F)F)n2ncc(C(=O)NCc3ccc(Cl)cc3)c2N1,inactive
23,Cc1nc(Nc2ccc(S(N)(=O)=O)cc2)sc1-c1ccccc1,"inconclusive: 35.5 µM [inhibitor, single point]"

row,Compound,Potency
1,CC1=C(C(=O)Nc2cccc(F)c2)C(c2ccsc2)C2=C(CC(C)(C)CC2=O)N1 (centres undefined),active: 10 µM
2,O=C(c1ccc2c(c1)OCO2)C1CCCN(C(=O)Nc2ccc(F)cc2F)C1 (centres undefined),"inconclusive: 6.31 µM [inhibitor, full curve, poor fit]"
3,Cc1ccc2nc(-c3ccccc3N)[nH]c2c1,inactive
4,COc1ccc(C2=C(C)C(=O)N(Cc3ccc(C(=O)Nc4cccc(F)c4)cc3)S2(=O)=O)cc1,"inconclusive: 4.47 µM [inhibitor, partial curve, poor fit]"
5,CCOc1ccccc1N1CCN(CC(O)COCc2cccs2)CC1 (centres undefined),inactive
6,CC(Oc1cccc(Cl)c1)C(=O)Nc1ccccc1N1CCCC1 (centres undefined),inactive
7,N#Cc1c(NC(=O)Cn2c(=O)oc3ccccc32)oc(-c2ccccc2)c1-c1ccccc1,"inconclusive: 20 µM [inhibitor, single point]"
8,Cc1ccc(-c2nc3c(C)cccn3c2Nc2ccccc2C)s1,"inconclusive: 35.5 µM [inhibitor, single point]"
9,Cc1cnc(NC(=O)C2CC(=O)N(c3ccc4c(c3)OCCO4)C2)s1 (centres undefined),"inconclusive: 25.1 µM [inhibitor, single point]"
10,CCCCCCC1CC(=CN(C)C)C(=O)O1 (centres undefined),"inconclusive: 17.8 µM [inhibitor, single point]"
11,COc1ccc(-c2c(C#N)c(N)nc3c2CCc2ccccc2-3)cc1OC,"inconclusive: 22.4 µM [inhibitor, single point]"
12,Cc1csc(SC(C)c2nc3scc(-c4ccccc4)c3c(=O)[nH]2)n1 (centres undefined),"inconclusive: 15.8 µM [inhibitor, partial curve, poor fit]"
13,CN1C(=O)NC(NC(=O)c2ccncc2)(C(F)(F)F)C1=O (centres undefined),inactive
14,CCOC(=O)c1ccc(Nc2nc3nonc3nc2Nc2cccc(C)c2C)cc1,"inconclusive: 3.16 µM [inhibitor, full curve, poor fit]"
15,O=C(COC(=O)/C=C/c1ccco1)NC1CCCCC1,"inconclusive: 35.5 µM [inhibitor, single point]"
16,N=c1ccn2c(n1)O[C@H]1[C@H](O)[C@@H](CO)O[C@H]12,inactive
17,O=C(Cn1cc(SCc2ccccc2F)c2ccccc21)N1CCCCCC1,"inconclusive: 35.5 µM [inhibitor, single point]"
18,CCn1cc([N+](=O)[O-])c(C(=O)Nc2nc(-c3ccc(C)cc3)c(C)s2)n1,"inconclusive: 22.4 µM [inhibitor, single point]"
19,CCOC(=O)c1c(S(=O)(=O)NCC(=O)Nc2cc(C)ccc2OC)c(C)n(C)c1C,"inconclusive: 3.55 µM [inhibitor, full curve]"
20,COc1ccc(S(=O)(=O)N2CCOC23CCN(S(=O)(=O)c2c(C)cc(C)cc2C)CC3)cc1,inactive
21,C/C=C(/C)C(=O)O[C@@H]1Cc2c(ccc3ccc(=O)oc23)OC1(C)C,inactive
22,O=C(Nc1cccc(Cl)c1)NC1CCCCC1,inactive
23,Cc1ccc(C(=O)OCc2cc(=O)n3nc(-c4cccs4)sc3n2)cc1,inactive

row,Compound,Potency
1,COc1ccc(N2CCN(c3n[nH]c(N)n3)CC2)cc1,inactive
2,COc1ccc(NC(=O)CSc2nc3ccccc3nc2Cc2ccc(C)cc2)cc1Cl,"inconclusive: 28.2 µM [inhibitor, single point]"
3,O=C(NCCN1CCOCC1)C1CCN(S(=O)(=O)N2CCCC2)CC1,inactive
4,CCOc1ccc(CCn2c3c(c(=O)[nH]c2=O)C(NC(=O)c2ccccc2)(C(F)(F)F)C(=O)N3)cc1OCC (centres undefined),"inconclusive: 5.62 µM [inhibitor, single point]"
5,Oc1ccc2ccccc2c1/C=N/Nc1nnc(-c2ncc[nH]2)c2ccccc12,"inconclusive: 7.94 µM [inhibitor, partial curve]"
6,CCOC(=O)c1ccc(-n2c(CN(CC)CC)nc3ccc([N+](=O)[O-])cc3c2=O)cc1,"inconclusive: 35.5 µM [inhibitor, single point]"
7,Cc1cccc(C(=O)Nc2ccc(C(=O)OCc3cc(=O)n4c5c(sc4n3)CCCC5)cc2)c1,"inconclusive: 22.4 µM [inhibitor, single point]"
8,COc1ccccc1CN1C(=O)CCC1(C)C(=O)NCc1cccnc1 (centres undefined),"inconclusive: 35.5 µM [inhibitor, single point]"
9,CCCCCCN1CCN(C2CN(C3CCCCC3)S(=O)(=O)C2)CC1 (centres undefined),"inconclusive: 22.4 µM [inhibitor, single point]"
10,Cc1[nH]c2ccccc2c1C(=O)CCl,"inconclusive: 1.58 µM [inhibitor, partial curve, poor fit]"
11,COc1cc(C2C(C#N)=C(N)Oc3cc(N(C)C)ccc32)cc2c1OCO2 (centres undefined),"inconclusive: 0.141 µM [inhibitor, full curve]"
12,COc1ccc(Cl)c(CNC[C@H]2O[C@@H](n3cnc(C(N)=O)n3)[C@H](O)[C@@H]2O)c1,"inconclusive: 35.5 µM [inhibitor, single point]"
13,O=C(Cc1c[nH]c2ccccc12)N1CCN(S(=O)(=O)c2cccc(Cl)c2Cl)CC1,"inconclusive: 20 µM [inhibitor, single point]"
14,NC(=O)c1cc2ccncc2c2ccccc12,"inconclusive: 35.5 µM [inhibitor, single point]"
15,Cn1c(=O)c2c(nc(Oc3ccc(F)cc3)n2Cc2ccc(F)cc2)n(C)c1=O,inactive
16,COc1ccccc1NC(=O)c1sc2nc(C)c(C(=O)Nc3ccc(C)cc3C)c(-c3ccc(Br)cc3)c2c1N,inactive
17,CC1(C(=O)NCc2ccc(Cl)cc2)CCN1C(=O)Cc1cccc2ccccc12 (centres undefined),"inconclusive: 14.1 µM [inhibitor, single point]"
18,COc1ccc(O)c(C(=O)/C=C/c2cc3ccccc3o2)c1,inactive
19,O=c1oc2ccccc2c(Nc2ccc(F)cc2)c1[N+](=O)[O-],"inconclusive: 35.5 µM [inhibitor, single point]"
20,COc1ccccc1C(=O)N1CCCCC1CCN1CCOCC1 (centres undefined),"inconclusive: 6.31 µM [inhibitor, single point]"
21,Cc1cccc(NC(=O)Cn2cc(C(=O)C3CCCCC3)c3ccccc32)c1C,"inconclusive: 2 µM [inhibitor, full curve]"
22,COCCn1nnnc1C(c1cc2ccc(C)cc2[nH]c1=O)N(Cc1ccco1)Cc1cccs1 (centres undefined),"inconclusive: 35.5 µM [inhibitor, single point]"
23,CCOC(=O)c1c(C)nc2sc(C(N)=O)c(N)c2c1-c1ccccc1,"inconclusive: 35.5 µM [inhibitor, partial curve, poor fit]"
